In the RNAGym collection of RNA variant scans (doi:10.7554/elife.90254) one finds self-cleavage data, which are given here for 56 variants.

Sequences and labels used below:
B1: LINE1-mini (parent)
chain: GGCAGAGCUCAACACAGCGUGGCAAAGUGGCUGUGGCUAGACUGCC

Read counts are not given, so values of variants with three or more changes are uncertain.

Variants of B1 are the subject of this data set. Briefly: self-cleavage, relative activity (ratio to wild type); higher = more cleavage; in vitro, sequencing; the parent is a self-cleaving ribozyme.
Regarding GGAAAAGCUCAACACAGCGUCGCAAAGUGGCUGUGACUAGACUGCC, the self-cleavage was 0.28.
Turning to GGCAGAGCCUAACACAGCGUUGCAAAGUGGCUGUGGCUAGACUGCC, the self-cleavage stood at 0.04.
Take GGCAGAGCUCAGCACAUCGUGGCAGAGUGGCUGUGGCUAGACUGCC: the self-cleavage was determined as 0.13.
Regarding UCCAGAGCUAACCACAGAGUGGCAAAGUGGCUGUGGCUAGACUGCC, the self-cleavage was 0.01.
As to GGCAGAGCUCAACACAGCGUGGCAAAUUGGCUGUGGUUAGACUGGC, the self-cleavage is 0.03.
Consider GGCAGAACUUAACACAGCAUGGCAAAGCGGCUGUGGCUAGACUGCC, for which the self-cleavage was determined as 0.04.
To GGCAGACCUCAAUACAGCGUGGCAAAGUGGCUAUGGCUAGACUGCU belongs 0.13; to GGCAGAGCUCAACACAGCGUGGCAUAGUGACUGUGGCUAGGCUGCC, 0.32; to GGCAGAGGUCAACACAGCGUGACUAAGUGGCAGUGGCUAGAAUGCC, 0.04.
In the case of GACAGAGCUCAACGCAGCGUAGAAAAGUGGCUGGGGCUAGACUGCC it was 0.1; in that of GGCAGAGCUCAACACAGCGUGGCUAAGUGGGUGUGGCUAGAAUGCC, 0.01; in that of GACAGAGCACAACACAGCUUGGCAAAGUGGCUGUGGCUAGACUGCC, 0.24.
Take UGCAGAGCUCCACACAGUGUGGCAAAGUUGCUGUGGGUAGACUGCC: the self-cleavage was found to be 0.
To AGCAGAGCUCAACUCAGCGUGGCAAAGUGGCUGUGGCUAGACUGAC belongs 0.18.
Consider GGCACAGCUCAACACAGCGUGGGAAAGUGACUGUGGCUGGACUGCC, for which the self-cleavage is 0.02.
For the variant GGCGGAGCGCAACACAGCGUGGCAAAGUGGCUGUGGCUAGACUGGC, the self-cleavage was 0.11.
As to GGCAGAGCUCCGCACAGCGUGGCAAAGUGGCUGUGGCUAGACAGCC, the self-cleavage is 0.07.
Consider GGCAGAGCUCCACACAGCAUGGCAAAGUGGCGGUGGCUAGACUGCC, for which the self-cleavage was 0.03.
For GGCAGAGCUAAACACAUCGCGGCAAAGUUCCUGUGGCUAGUCUGCC, the self-cleavage turned out to be 0.02.
On to GGCAGAGCUCAAAACAGCGUGACAAAGUGGCUGUGGCUAGACUGCA, for which the self-cleavage amounted to 0.14.
Regarding GGCACAGCUCAAUACAGCGUGGCAAAGUGGCUGUGGCUAGCCUACC, the self-cleavage was found to be 0.09.
As for GGCAGAGCUCAACCCAGCGUGGGAAAGUGGCUGUGGCUAGACUGAC, the self-cleavage worked out at 0.08.
In the case of GGCAGAGCUCAACAAAGCGUGGCAAAGUGGCUGCGGAUAGACUGCC it was 0.02; in that of GGCAGACCUAAACACAGCGUGGCAAAGUGGCUGUGGCUAAACUGCC, 0.03; in that of GGUAGAGCUCAACACAGCGUGGCAAAGUGGCUGUGGCCAGACUGCA, 0.27.
In the case of GGCAGAGCUCAACACAGGGUGGCAAAUUGGCUGUGGCUAGACUGCA it was 0.34; in that of GGCAGAGCUCAACACAGCGUGGCAAUGUUGCUGUGGCUAGACAGCC, 0.11.
For the variant GGCAGAGCUCAACACAGUGGGGCAAAGUUGCUGUGGCUAGACUGCC, the self-cleavage stood at 0.14.
UGCAGAACUCAAUACAGCGUGGCAAAGUGGCUGUGGGUAGACUGCC: the self-cleavage turned out to be 0.06.
With GGCAGAGCUCAACACAGCGUGGCAAAGUGGCUGUGUCUAAACUUCC, the self-cleavage is 0.16.
As for GGCAGUGAUCAAAACAGCGUGGCAAAGUGGCUGUGGCUAGACUGCC, the self-cleavage was found to be 0.68.
Regarding GGCAGAGCACAACACAGAGUGGCAAAGUGGCUGUGGCUAUACUGCC, the self-cleavage is 0.07.
Take GGCAGAGCUCACCACAGCGUGGCAAAGUGGCUGUGGGUAGCCUGCC: the self-cleavage amounted to 0.01.
As to GGCAGAUCUCAACACAUCGUAGCAAAGUGGCUAUCGCUAGACUGCC, the self-cleavage came to 0.32.
In the case of GGCAGAGCUAAACACAGCGUGGCUAAGUUGCUGUGGCUAGACUGCC, the self-cleavage was 0.05.
To GUCAGAGCUCAACACAGUGUGGCAAAGUGGCUGUGGCUAGAUUGCC belongs 0.05; to GGGAGACCUUACCACAGCGUGGCAAAGUAGCUGUGGCUAGACUGCC, 0.02; to GGCAGAGCUCAACAAAACGUGGCAAAGUGGCUGUAGCUAGGCUGCC, 0.1.
GGCAAAGCCCAACACAGCGUGGCAAAGUGGCUGUGUCUAGACUGCC: the self-cleavage turned out to be 0.02.
In the case of GGCAGAACUCAACACAGCGUGGCAAAGUGGCUGUGACUGGACUGCC it was 0.1; in that of GGCAGAGCUCCACACAGCUUGGCAAAGUGGCUGUGGCUAAAAUGCC, 0.01.
With GCCUGAGCUCUACACAGUGUGGCAAAGUGGCUGCGGCUAGACUGCC, the self-cleavage came out at 0.01.
Consider GCCAGAGCUCUACAAAGCGUGGCAAAGUAGCUGUGACUAGACUGCC, for which the self-cleavage was 0.01.
In the case of GGGAGAGCUCAACACAGCGAAGUAAAGUGGCUUUGGCUGUACUGCC, the self-cleavage amounted to 0.06.
With GGUAGAGCUCAACCCAGCGUGGCAACGUGGCUGUGGCUAGACUGCC, the self-cleavage turned out to be 0.08.
Take UGCAGAGCUCAAUACAGCGUGGCAAUGUGGCUUUGGCUAGACUGCC: the self-cleavage was found to be 0.03.
As for UGCAGAGCUCAAUACAGCGUGGCAAAGUGGCUGUGGCUAGGCUGCC, the self-cleavage was 0.06.
Take GGCAGAGCUCAACACAGCGUGGUAAAGUGUCUGUGGCUAGACCGCC: the self-cleavage came to 0.09.
Turning to GGGAGAGCUCAAUGCAGCGUGUCUAAGUGGCUGUGGGUAGACUGCC, the self-cleavage is 0.36.
For GGCAGAGCUCAAUACAGCGUGGCAAAGUGACUGUGGCUACACUGCC, the self-cleavage came out at 0.01.
Take GGCAGAGCUCAAUACAGCGUGGCAAAGUGGUUGUGGCGAGACAGCC: the self-cleavage was determined as 0.01.
Turning to AGCAGAGCUCAACGCAGCGUGGCAACGUGGCUGUGGCUAGACGGCC, the self-cleavage was 0.
GGCGGAGCUCAACACAGCUUGGCAAAGUGGCUGUGGCUAUACUGCC: the self-cleavage came to 0.05.
As for GGCACAUCUAAACUCAGCGUGGCAUAGUGGCUGUGGCUAGAGUGCC, the self-cleavage was 0.01.
For the variant GGCAGAGCUCAACACAGCCUGGCACAAUUGCUGUGGCGAGACUGCC, the self-cleavage was 0.06.
In the case of AGCAGAGCUAAACUCAGCGUGGCAAAGUCACUGUGGCUAGACUGCC it was 0.01.
